Assay results from article PMC9911399, “Two distinct binding modes provide the RNA-binding protein RbFox with extraordinary sequence specificity”.
Residue numbers refer to the chain shown, from its start. This is one part of the list.

T1: RBFOX1 RRM RbFoxmut (Fox-RRM*) (Homo sapiens, UniProt Q9NWB1 109-208, R118D;E147R;N151S;E152T)
T1 sequence: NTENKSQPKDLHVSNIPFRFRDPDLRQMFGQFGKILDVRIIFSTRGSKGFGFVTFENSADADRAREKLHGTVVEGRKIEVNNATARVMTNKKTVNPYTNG

B1: UUCGAAC (DNA:RNA)
RNA: GGGAGACCGGAAUUCAGAUUGUCCUUCGAACUUAAAUCCCGUCGUAGCCACCA
DNA 1: CAATCTGAATTCCGGTCTCCC
DNA 2: TGGTGGCTACGACGGGATT
B2: AGAUAGG (DNA:RNA)
RNA: B1 RNA with U25A, U26G, C27A, G28U, A30G, C31G
DNA 1: CAATCTGAATTCCGGTCTCCC
DNA 2: TGGTGGCTACGACGGGATT
B3: AUAAAUU (DNA:RNA)
RNA: B1 RNA with U25A, C27A, G28A, A30U, C31U
DNA 1: CAATCTGAATTCCGGTCTCCC
DNA 2: TGGTGGCTACGACGGGATT
B4: GCCACGC (DNA:RNA)
RNA: B1 RNA with U25G, U26C, G28A, A29C, A30G
DNA 1: CAATCTGAATTCCGGTCTCCC
DNA 2: TGGTGGCTACGACGGGATT
B5: GUUUCGU (DNA:RNA)
RNA: B1 RNA with U25G, C27U, G28U, A29C, A30G, C31U
DNA 1: CAATCTGAATTCCGGTCTCCC
DNA 2: TGGTGGCTACGACGGGATT
B6: UCUUCGU (DNA:RNA)
RNA: B1 RNA with U26C, C27U, G28U, A29C, A30G, C31U
DNA 1: CAATCTGAATTCCGGTCTCCC
DNA 2: TGGTGGCTACGACGGGATT
B7: ACGGAUC (DNA:RNA)
RNA: B1 RNA with U25A, U26C, C27G, A30U
DNA 1: CAATCTGAATTCCGGTCTCCC
DNA 2: TGGTGGCTACGACGGGATT
B8: CGAAAGC (DNA:RNA)
RNA: B1 RNA with U25C, U26G, C27A, G28A, A30G
DNA 1: CAATCTGAATTCCGGTCTCCC
DNA 2: TGGTGGCTACGACGGGATT
B9: GCAUAUC (DNA:RNA)
RNA: B1 RNA with U25G, U26C, C27A, G28U, A30U
DNA 1: CAATCTGAATTCCGGTCTCCC
DNA 2: TGGTGGCTACGACGGGATT
B10: GCGGCGC (DNA:RNA)
RNA: B1 RNA with U25G, U26C, C27G, A29C, A30G
DNA 1: CAATCTGAATTCCGGTCTCCC
DNA 2: TGGTGGCTACGACGGGATT
B11: AAAUAGC (DNA:RNA)
RNA: B1 RNA with U25A, U26A, C27A, G28U, A30G
DNA 1: CAATCTGAATTCCGGTCTCCC
DNA 2: TGGTGGCTACGACGGGATT
B12: CCCGAGA (DNA:RNA)
RNA: B1 RNA with U25C, U26C, A30G, C31A
DNA 1: CAATCTGAATTCCGGTCTCCC
DNA 2: TGGTGGCTACGACGGGATT
B13: UGAUGUA (DNA:RNA)
RNA: B1 RNA with U26G, C27A, G28U, A29G, A30U, C31A
DNA 1: CAATCTGAATTCCGGTCTCCC
DNA 2: TGGTGGCTACGACGGGATT
B14: CAUACUG (DNA:RNA)
RNA: GGGAGACCGGAAUUCAGAUUGUCCCAUACUGUUAAAUCCCGUCGUAGCCACCA
DNA 1: CAATCTGAATTCCGGTCTCCC
DNA 2: TGGTGGCTACGACGGGATT
B15: GCACUAG (DNA:RNA)
RNA: B14 RNA with C25G, A26C, U27A, A28C, C29U, U30A
DNA 1: CAATCTGAATTCCGGTCTCCC
DNA 2: TGGTGGCTACGACGGGATT
B16: UAUAUGG (DNA:RNA)
RNA: B14 RNA with C25U, C29U, U30G
DNA 1: CAATCTGAATTCCGGTCTCCC
DNA 2: TGGTGGCTACGACGGGATT
B17: CAUCAGG (DNA:RNA)
RNA: B14 RNA with A28C, C29A, U30G
DNA 1: CAATCTGAATTCCGGTCTCCC
DNA 2: TGGTGGCTACGACGGGATT
B18: UAGUCUC (DNA:RNA)
RNA: B14 RNA with C25U, U27G, A28U, G31C
DNA 1: CAATCTGAATTCCGGTCTCCC
DNA 2: TGGTGGCTACGACGGGATT
B19: UGGCCAC (DNA:RNA)
RNA: B1 RNA with U26G, C27G, G28C, A29C
DNA 1: CAATCTGAATTCCGGTCTCCC
DNA 2: TGGTGGCTACGACGGGATT
B20: CUGGUGA (DNA:RNA)
RNA: B1 RNA with U25C, C27G, A29U, A30G, C31A
DNA 1: CAATCTGAATTCCGGTCTCCC
DNA 2: TGGTGGCTACGACGGGATT

These binders were tested against T1, RBFOX1 RRM RbFoxmut (Fox-RRM*) (assay: EMSA; HiTS-Eq, 1 nM pool, 10 min; buffer printed only for the single-RNA assays: 10 mM Tris pH 7.5, 150 mM NaCl, 3.4 mM EDTA, 0.001% NP-40, 30 C). Conditions: tags: His6 N-terminal (pET28a); label: 5' 32P.
Outline: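 Purified RbFox RRM (wild type or mutant) was equilibrated for 10 min in 50 µL with 1 nM of a 5′-radiolabelled pool of RNA with 7 randomized nucleotides, its flanks annealed to DNA oligonucleotides, across increasing protein concentrations. Free RNA was separated by 8% native PAGE, excised, reverse-transcribed, PCR-barcoded and sequenced on an Illumina HiSeq 2500. Relative association constants came from read-count changes of each variant against the control reaction, normalised to the cognate motif.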

Row | Binder | binding signal
1 | B1 | 0.0677 KA relative to UGCAUGU
2 | B2 | 0.115 KA relative to UGCAUGU
3 | B3 | 0.0977 KA relative to UGCAUGU
4 | B4 | 0.0948 KA relative to UGCAUGU
5 | B5 | 0.233 KA relative to UGCAUGU
6 | B6 | 0.0981 KA relative to UGCAUGU
7 | B7 | 0.125 KA relative to UGCAUGU
8 | B8 | 0.0735 KA relative to UGCAUGU
9 | B9 | 0.073 KA relative to UGCAUGU
10 | B10 | 0.103 KA relative to UGCAUGU
11 | B11 | 0.0833 KA relative to UGCAUGU
12 | B12 | 0.0631 KA relative to UGCAUGU
13 | B13 | 0.195 KA relative to UGCAUGU
14 | B14 | 0.0879 KA relative to UGCAUGU
15 | B15 | 0.0935 KA relative to UGCAUGU
16 | B16 | 0.0856 KA relative to UGCAUGU
17 | B17 | 0.0914 KA relative to UGCAUGU
18 | B18 | 0.0875 KA relative to UGCAUGU
19 | B19 | 0.0849 KA relative to UGCAUGU
20 | B20 | 0.0924 KA relative to UGCAUGU
